Test system: MRSA USA400 MW2
Assay: Time-kill in PBS, stationary-phase cells
Settings: V and V-r8 20 μM, lysostaphin 1.25 μg/ml (10×MIC); detection limit 2.3
Experimental: FIG. 3A-3B. […] Assay detection limit=2.3.
Time-Kill Kinetics Experiments in MHB and PBS. A stationary-phase culture of USA400 MW2 was prepared by inoculating 1 colony into 4 mL media and growing at 37° C. for 14-16 h. The culture was pelleted 3 times by centrifugation at 10,000 g for 1 min to remove spent medium and diluted in PBS to OD 0.1 just prior to treatment. 50 μL of the bacterial suspension was mixed with 50 μL of treatment compounds at 2-times the desired concentration for a final treatment concentration of 20 μM. The plate was incubated at 37° C. with 200 rpm shaking, and CFUs were plated on Tryptic soy agar via serial dilution at determined time points. Lysostaphin (1.25 μg/mL) served as a positive control.

Compound | cell killing, time-kill in PBS
CN[C@H](CC(C)C)C(=O)N[C@H]1C(=O)N[C@@H](CC(N)=O)C(=O)N[C@H]2C(=O)N[C@H]3C(=O)N[C@H](C(=O)N[C@H](C(=O)NCCCCCC(=O)N[C@H](CCCNC(=N)N)C(=O)N[C@H](CCCNC(=N)N)C(=O)N[C@H](CCCNC(=N)N)C(=O)N[C@H](CCCNC(=N)N)C(=O)N[C@H](CCCNC(=N)N)C(=O)N[C@H](CCCNC(=N)N)C(=O)N[C@H](CCCNC(=N)N)C(=O)N[C@H](CCCNC(=N)N)C(N)=O)c4cc(O)cc(O)c4-c4cc3ccc4O)[C@H](O)c3ccc(c(Cl)c3)Oc3cc2cc(c3O[C@@H]2O[C@H](CO)[C@@H](O)[C@H](O)[C@H]2O[C@H]2C[C@](C)(N)[C@H](O)[C@H](C)O2)Oc2ccc(cc2Cl)[C@H]1O [V-r8, vancomycin-D-octaarginine] | bacterial killing down to the assay's detection limit
CN[C@H](CC(C)C)C(=O)N[C@H]1C(=O)N[C@@H](CC(N)=O)C(=O)N[C@H]2C(=O)N[C@H]3C(=O)N[C@H](C(=O)N[C@H](C(=O)O)c4cc(O)cc(O)c4-c4cc3ccc4O)[C@H](O)c3ccc(c(Cl)c3)Oc3cc2cc(c3O[C@@H]2O[C@H](CO)[C@@H](O)[C@H](O)[C@H]2O[C@H]2C[C@](C)(N)[C@H](O)[C@H](C)O2)Oc2ccc(cc2Cl)[C@H]1O [Vancomycin] | does not instantly kill cells
Lysostaphin: an antibacterial enzyme that induces membrane permeabilization, positive control | rapid killing

From patent US12194105B2, “Composition and method for new antimicrobial agents with secondary mode of action provided by conjugation of an antimicrobial to a guanidinium-rich molecular transporter” (The Board of Trustees of the Leland Stanford Junior …, priority 2018, dated 2025)
